# Source: PMC5540273 (PLoS ONE, 2017)
# For some of these results: What follows is the remainder of the data, with few or none of the strong results. This is a selection; strong and weak results do not stand in their true shares.
# Experiments:
# Details in all cases: concentration: 1 μM,replicates: in singlicate; n = 1
# FLT4 = system: FLT4
# FRK = system: FRK
# FYN = system: FYN
# GAK = system: GAK
# GCN2(Kin.Dom.2,S808G) = system: T1, GCN2(Kin.Dom.2,S808G)
# T1 construct: gene EIF2AK4
# GRK1 = system: GRK1
# GRK2 = system: T2, GRK2
# T2 construct: gene ADRBK1
# GRK3 = system: T3, GRK3
# T3 construct: gene ADRBK2
# GRK4 = system: GRK4
# GRK7 = system: GRK7
# 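Further: KINOMEscan kinase panel screen.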
SMILES,%Inh (FLT4) [%],%Inh (FRK) [%],%Inh (FYN) [%],%Inh (GAK) [%],"%Inh (GCN2(Kin.Dom.2,S808G)) [%]",%Inh (GRK1) [%],%Inh (GRK2) [%],%Inh (GRK3) [%],%Inh (GRK4) [%],%Inh (GRK7) [%]
CS(=O)(=O)c1ccccc1-c1nc(-c2ccc(F)cc2)c(-c2ccncc2)[nH]1 [SB-213663],1,12,0,63,9,0,48,0,22,31
O=C1NC(=O)C(c2ccccc2Cl)=C1Nc1ccccc1 [SB-376715],17,2,21,89,0,0,0,0,0,0
O=C1NC(=O)C(c2ccc(Cl)cc2)=C1Nc1ccc(O)c(Cl)c1 [SB-405367],7,0,0,0,0,41,0,0,0,29
O=C1NC(=O)C(c2ccccc2Cl)=C1Nc1cccc(C(=O)O)c1 [SB-390526],18,2,7,11,0,0,0,5,20,0
O=C1NC(=O)c2c1c(-c1ccccc1)cc1[nH]c3ccc(O)cc3c21,1,29,35,92.1,73,17,12,21,90.1,7
Cc1cc(C)cc(Oc2nccc(-c3c(-c4ccc(F)cc4)ncn3C3CCNCC3)n2)c1.O=C(O)C(F)(F)F.O=C(O)C(F)(F)F.O=C(O)C(F)(F)F [SB-284851],5,0,3,6,72,15,0,0,9,0
O=C(O)c1ccc(-c2nc(-c3ccc(F)cc3)c(-c3ccncc3)[nH]2)cc1 [SB-202620],19,12,0,71,38,22,0,0,27,0
O=C1NC(=O)C(c2ccccc2)=C1Nc1cc(Cl)c(O)c(Cl)c1 [SB-390530],0,0,0,15,15,0,0,28,28,29
CSc1ccc(NC2=C(c3cccc(Cl)c3)C(=O)NC2=O)cc1 [SB-341528],0,0,0,4,15,8,0,0,0,42
O=C1NC(=O)C(c2ccc(Cl)cc2)=C1Nc1ccccc1 [SB-317661],0,0,0,0,0,41,0,39,11,0
O=C1NC(=O)C(c2ccc(Cl)cc2)=C1Nc1cccc(O)c1 [SB-333613],0,0,0,5,5,17,44,51,11,37
COc1ccc(C2=C(Nc3cccc(Cl)c3)C(=O)NC2=O)cc1 [SB-326892],16,0,0,1,100,0,0,0,9,0
O=C1NC(=O)C(c2ccc(Cl)cc2)=C1Nc1cccc(C(=O)O)c1 [SB-360737],6,0,33,0,0,0,0,0,0,0
COc1cccc(C2=C(Nc3ccc(SC)cc3)C(=O)NC2=O)c1 [SB-331032],3,2,0,0,0,32,12,0,6,0
O=C1NC(=O)C(c2ccccc2)=C1Nc1ccc(Cl)c(C(=O)O)c1 [SB-390532],29,10,46,12,14,6,0,65,0,0
Cc1ccc(C)c(Oc2nccc(-c3c(-c4ccc(F)cc4)ncn3C3CCNCC3)n2)c1.O=C(O)C(F)(F)F.O=C(O)C(F)(F)F.O=C(O)C(F)(F)F [SB-284852],0,7,33,97.7,0,0,0,0,0,0
